Whole data set: some 33,000 sequences, median “E-score (-0.5 to 0.5)” near -0.012, cut for the highest 2% near 0.29. The list shows a part of the results.
The sequences below were run against T1, Ybr033w (UniProt P38073) (assay: PBM E-score (8-mer binding enrichment) (E-score (-0.5 to 0.5)); higher = stronger / more preferred TF binding; most listed sequences are background and not binding sites). Conditions: protein concentration: 200 nM; construct: GST-full length.
T1 sequence: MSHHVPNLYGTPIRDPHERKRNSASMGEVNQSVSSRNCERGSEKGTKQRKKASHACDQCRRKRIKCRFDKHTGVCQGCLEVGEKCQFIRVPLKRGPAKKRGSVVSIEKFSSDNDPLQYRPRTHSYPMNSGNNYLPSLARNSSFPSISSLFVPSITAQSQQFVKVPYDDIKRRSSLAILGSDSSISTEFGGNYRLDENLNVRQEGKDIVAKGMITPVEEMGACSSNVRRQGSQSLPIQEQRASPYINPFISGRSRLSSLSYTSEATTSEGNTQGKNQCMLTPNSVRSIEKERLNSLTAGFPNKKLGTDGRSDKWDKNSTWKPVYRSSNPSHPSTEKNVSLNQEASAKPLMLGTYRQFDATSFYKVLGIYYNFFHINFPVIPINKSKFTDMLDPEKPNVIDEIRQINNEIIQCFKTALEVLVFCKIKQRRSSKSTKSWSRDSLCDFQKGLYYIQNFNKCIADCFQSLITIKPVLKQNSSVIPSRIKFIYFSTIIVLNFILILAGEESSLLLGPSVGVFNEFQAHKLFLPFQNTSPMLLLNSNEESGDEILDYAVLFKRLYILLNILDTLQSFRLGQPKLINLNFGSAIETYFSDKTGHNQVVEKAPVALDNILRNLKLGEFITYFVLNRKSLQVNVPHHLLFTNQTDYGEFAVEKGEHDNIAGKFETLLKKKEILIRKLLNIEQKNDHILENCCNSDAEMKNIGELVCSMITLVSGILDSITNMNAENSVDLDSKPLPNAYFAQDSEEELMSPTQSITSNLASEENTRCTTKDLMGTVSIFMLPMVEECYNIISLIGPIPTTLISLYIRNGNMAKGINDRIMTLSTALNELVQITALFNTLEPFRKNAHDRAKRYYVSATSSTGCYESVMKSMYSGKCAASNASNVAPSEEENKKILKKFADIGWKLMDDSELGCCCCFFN
In short: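 Universal all-10-mer Agilent arrays, fresh or stripped once, were converted to double-stranded form by primer extension. GST-tagged yeast transcription factors from PURExpress in vitro transcription/translation, full-length or DNA-binding domain only, were applied at about 100-200 nM and detected with fluorescent anti-GST. After masliner normalisation, the Universal PBM Analysis Suite scored each ungapped eight-base word together with its reverse complement by E-score.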

Sequence | PBM E-score
CATGCCAC | -0.103
AACAAGAG | 0.00138
CTTTCACA | 0.11
AAAATTAA | 0.308
GCGGCCTA | -0.185
AAAGAGCT | -0.151
AGTTGAAT | 0.149
CAGCTCGC | -0.00356
CTGAAAGC | 0.0974
ATGGACTG | -0.0798
TCCACCAA | -0.00327
AATTTCTC | 0.299
AAGGGATA | 0.111
AACCAAGA | 0.165
CGACAACC | -0.179
GCAAGCGA | -0.0415
AGGACCGC | -0.146
GAAATTTC | -0.0314
GAGTACTA | 0.133
CGACTACA | 0.0164
AGCTATAG | -0.241
GGGGGTAC | -0.254
AGCAAAGA | 0.0215
AGGAGACT | -0.0682
AACGTTGG | 0.102

Sequence | PBM E-score
CACGCTCA | 0.0193
ATGTGCGA | -0.134
CGTGCGCC | 0.0601
ATGGCGGA | -0.073
ATTGGTCC | 0.0738
CACCAAGA | 0.0521
GCGGATAC | 0.0188
CTCCACAA | 0.0525
CCGAACGG | -0.0849
CTAAAGGA | 0.0541
GGGTAGGA | 0.0231
ATTTTTTG | 0.274
GCCCAAAA | -0.0106
AGTGGCAA | 0.0126
ATAAGTCG | -0.0957
AACCCTCC | -0.233
AAACGTTG | -0.111
CCCGGGTA | -0.0804
AGCGTATG | -0.00622
GACTCCTA | -0.079
AGCATCGC | -0.108
CTTAGAAG | -0.0147
AACGACTT | -0.174
CATTCTAC | -0.00379
CAGTCATG | -0.144

Sequence | PBM E-score
CAATACTA | 0.143
CGGCTTAA | 0.122
ACCGTGCG | -0.0796
AACATACA | 0.179
AGCAATAG | 0.0737
GTTCCTCA | 0.0553
AGAGGCTA | -0.165
GTAGGCAA | -0.0668
ACGTCGTG | 0.00905
GATCTACC | 0.00163
CCCCACAG | -0.282
TATCCACA | 0.126
CTATGGAC | -0.0707
ACGTCTTG | 0.0663
ATTGCTGG | -0.156
AGTTTCCA | 0.0916
GATTTATA | 0.232
CGGGCTGC | -0.248
CTGGCTAC | -0.327
ATGTGTCA | 0.119
ACAATCCT | 0.212
CACATATG | -0.058
AACCCTGC | -0.253
CGTAGCTA | -0.181
AACTCTGG | -0.0682

Sequence | PBM E-score
ACCCGCCC | -0.187
GTACCTAA | -0.0687
AATAATCC | 0.439
GAGTATGA | 0.0866
ACTATTGA | 0.243
TCCGATAA | 0.0588
AGTGGATA | 0.2
GACGGATA | 0.0415
ATCGCTTA | -0.117
TGCACTAA | 0.236
CGGGGGAG | -0.329
AGCACATC | 0.0551
AGATTCGG | 0.0497
CCCCTACG | -0.298
CGCACTAC | -0.202
CCAGCTTC | 0.0144
CAAGGATA | 0.112
ACCACTTG | 0.0378
CACGGTAG | -0.00774
GTCGTTAA | 0.0872
CATTATGA | 0.109
CACTAGTG | -0.192
AGCCCCTC | -0.244
CCCAAAAC | 0.157
AGACGGGG | -0.216

Sequence | PBM E-score
TAATTATA | 0.382
CTGAATAA | 0.186
GGCGAAGA | -0.108
ATCGGGGC | -0.232
ACCAAGGA | 0.114
ACTCTCCC | -0.139
AATAGACT | 0.0343
ATAACCCC | -0.144
CCGTGTAC | 0.181
CAGTACTA | 0.0485
ATCAGTTG | 0.0799
GATCTTGC | 0.0857
CGACCAGA | 0.0353
CTTCCATC | -0.00237
GAGCGATC | 0.0201
TCGGCAAA | -0.0191
ATCGCACG | 0.0266
GACATAGC | 0.069
AAGCGCGA | -0.0839
CTCGAAGC | -0.0857
CGAAATAG | 0.0397
ACCAGGAG | -0.0938
ACAAGACC | -0.142
AAGTAGAA | 0.266
AGAGGTAC | -0.28

Sequence | PBM E-score
TCTGCGCA | 0.0104
CTCATAAG | 0.0574
CGTCCGAC | -0.198
CATCCCCC | -0.366
GGAACGAC | -0.144
GACGAAGC | -0.193
CTAATAGA | 0.06
GCCGCGAA | -0.0581
ATATAGTA | 0.28
GATTTTAC | 0.161
ACTTGAGC | -0.259
ACATGAGT | -0.0296
CCTATATC | 0.0627
AATTCCTC | 0.123
GTCGTGGA | -0.0343
GACATCAC | -0.149
CCCCTGCA | -0.309
CAGTGGGC | -0.183
CAATGGCC | -0.296
CGGGTGCA | -0.195
GTAACTAA | 0.115
AATGACTC | 0.0434
ACAAGAGA | -0.0248
AATGACAG | -0.0979
GACTTGCC | -0.24

Sequence | PBM E-score
ATACATTC | 0.126
CTAGGCAA | -0.121
CATCACGA | -0.0307
CTCTGTCC | -0.138
AGCCCGGA | -0.0682
CATATTGA | 0.0393
CATTGGAG | -0.111
CAAACGCA | -0.0782
CGGTGCTA | -0.0592
CATCTAAC | -0.131
CTGGGTCC | -0.381
CCATGTCC | -0.152
CGAACGTA | -0.0312
GGCCGCAA | -0.0811
AATGTCGT | 0.123
ACGGACCC | -0.266
AGAAAACT | 0.227
GCGAACCC | -0.115
ACGTAAAT | -0.0471
AGAGACAC | -0.115
CGTTAGAA | 0.0234
ACTTCCTA | 0.093
